{"source": "PubChem BioAssay AID624418", "about": "(National Center for Advancing Translational Sciences (NCATS), 2012)", "note": "The campaign covered roughly 410,000 compounds. About 530 (0.13%) were called active. Inconclusive results, whose numbers are uncertain, are shown with a selection of clear calls. Calls follow the shape of the dose curve; as a rule, active = well fitted inhibition curve with a large enough effect; inconclusive = small, poorly fitted or top-dose-only effect, or another doubt; inactive = no such curve, though single readings can be large or run the other way. Where the call is inconclusive, the potency comes from a doubtful curve fit. % is scaled to controls: 0 for no effect and ±100 for the full control effect; potency is read from the fitted curve at half-maximal effect.", "data": [{"test": "qHTS of GLP-1 Receptor Inverse Agonists: Cytotox Screen", "conditions": "HEK293 cAMP-luciferase reporter cells, luminescence, 24 h; activity change, negative = inhibition: at 38.3 µM (top of the series) unless noted", "in_short": "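MLSMR compounds, 24 hr on cells at 37 deg C/5% CO2; luminescence after luciferase reagent (12 min RT). Inhibition counted as the undesired cytotoxic outcome.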", "values": [{"smiles": "CN(C)/C=N/c1nc2nccc(-c3cccnc3)n2n1", "activity change, negative = inhibition": "inactive: 3.68%"}, {"smiles": "Cc1c(C(c2ccc(N(C)C)cc2)c2c(C)n(C)n(-c3ccccc3)c2=O)c(=O)n(-c2ccccc2)n1C", "Potency": "inconclusive: 3.16 µM [inhibitor, partial curve, poor fit]"}, {"smiles": "CN(C)CCNC(=O)CCCN1C(=O)c2cccnc2Oc2ccc(Cl)cc21", "activity change, negative = inhibition": "inactive: 4.14%"}, {"smiles": "CNC(=O)c1nnsc1S(=O)c1ccc(Cl)cc1", "note": "(stereo not drawn)", "Potency": "inconclusive: 28.2 µM [inhibitor, single point]"}, {"smiles": "CC1CN(S(=O)(=O)c2cccc(C(=O)OC/C(O)=C(\\C#N)c3nc4ccccc4[nH]3)c2)CC(C)O1", "note": "(stereo not drawn)", "Potency": "inconclusive: 20 µM [inhibitor, partial curve, poor fit]"}, {"smiles": "COc1cccc(NC(=O)CN(C)C(=O)c2cc(-c3ccccc3)nc3ccccc23)c1", "Potency": "inconclusive: 14.1 µM [inhibitor, single point]"}, {"smiles": "CCN(CC)CCCNc1nc(CN2CCOCC2)nc2sc3c(c12)CCC3", "Potency": "inconclusive: 22.4 µM [inhibitor, single point]"}, {"smiles": "CNC(=O)/C(C#N)=C/c1ccc(-c2ccc(OC)cc2[N+](=O)[O-])o1", "Potency": "inconclusive: 22.4 µM [inhibitor, single point]"}, {"smiles": "CCN(Cc1nc2ccccc2c(=O)[nH]1)C(=O)C1CC(=O)N(c2cccc3ccccc23)C1", "note": "(stereo not drawn)", "Potency": "inconclusive: 28.2 µM [inhibitor, single point]"}, {"smiles": "COC(=O)c1[nH]c2cccc(OC)c2c1NC(=O)C(C)N1CCC(C)CC1", "note": "(stereo not drawn)", "activity change, negative = inhibition": "inactive: 1.69%"}, {"smiles": "OC(c1ccccc1)(c1nc(-c2cccc(C(F)(F)F)c2)cs1)C(F)(F)F", "note": "(stereo not drawn)", "Potency": "inconclusive: 28.2 µM [inhibitor, single point]"}, {"smiles": "CS(=O)(=O)Nc1cccc(NC(=O)C2Cc3c(-c4cccc(F)c4)ccnc3O2)c1", "note": "(stereo not drawn)", "Potency": "inconclusive: 31.6 µM [inhibitor, single point]"}, {"smiles": "O=C(NC(=S)Nc1cccc2[nH]ncc12)c1ccccc1", "activity change, negative = inhibition": "inactive: -14.6%"}, {"smiles": "O=C1CN(C(=O)Cn2ncc(Cl)c(Cl)c2=O)c2ccccc2N1", "Potency": "inconclusive: 28.2 µM [inhibitor, single point]"}, {"smiles": "Cc1cc(N2CCCCC2)nc2ccc(NC(=O)c3cccc(F)c3)cc12", "Potency": "inconclusive: 5.62 µM [inhibitor, partial curve, poor fit]"}, {"smiles": "COC(=O)c1cc2occc2n1CC(=O)N(C)C1CCCCC1", "Potency": "inconclusive: 0.501 µM [inhibitor, full curve, poor fit]"}, {"smiles": "COc1ccc(-c2cc(C3CCN(Cc4cccc(C(F)(F)F)c4)CC3)[nH]n2)cc1", "Potency": "inconclusive: 11.2 µM [inhibitor, single point]"}, {"smiles": "CC(C)c1ccc(NC(=O)CN2C(=O)COc3ccc(S(=O)(=O)Nc4ccccc4)cc32)cc1", "activity change, negative = inhibition": "inactive: 5.66%"}, {"smiles": "Fc1ccccc1NC(=S)NCc1ccccc1", "activity change, negative = inhibition": "inactive: -4.9%"}, {"smiles": "O=Nc1c(-c2c(O)[nH]c3cc(Br)ccc23)[nH]c2ccccc12", "Potency": "inconclusive: 10 µM [inhibitor, partial curve, poor fit]"}, {"smiles": "COc1cnc(-c2ccccn2)nc1Sc1ccc(Cl)cc1", "Potency": "inconclusive: 1 µM [inhibitor, full curve, poor fit]"}, {"smiles": "Cc1cccc(NC(=O)c2cc(S(=O)(=O)c3ccccc3)ccc2Cl)c1", "activity change, negative = inhibition": "inactive: -10.1%"}, {"smiles": "COCCNC(=O)C(=O)Nc1ccc2c(c1)N(S(=O)(=O)c1cccs1)CCC2", "Potency": "inconclusive: 10 µM [inhibitor, single point]"}, {"smiles": "CC(c1ccccc1)C1CC(=O)N(Cc2ccco2)C1=O", "note": "(stereo not drawn)", "activity change, negative = inhibition": "inactive: 2.35%"}, {"smiles": "O=C(CCN1C(=O)C2C3C=CC(C3)C2C1=O)N1CCN(c2ccc([N+](=O)[O-])cc2)CC1", "note": "(stereo not drawn)", "Potency": "inconclusive: 8.91 µM [inhibitor, partial curve, poor fit]"}, {"smiles": "O=C(NNc1ccccc1)c1ccc(Cl)c(Cl)c1", "Potency": "inconclusive: 2.82 µM [inhibitor, full curve]"}, {"smiles": "COc1ccc2[nH]c(C)c(CCNC(=S)Nc3cccc(C)c3C)c2c1", "Potency": "inconclusive: 28.2 µM [inhibitor, single point]"}, {"smiles": "CCN1/C(=C2\\C(=O)N(C)C(=S)N2C)C=Cc2ccccc21", "Potency": "inconclusive: 11.2 µM [inhibitor, partial curve, poor fit]"}, {"smiles": "N/C(=N\\OC(=O)N1CCOCC1)c1ccccc1", "Potency": "inconclusive: 8.91 µM [inhibitor, single point]"}, {"smiles": "Cn1c(=O)n(C)c2cc(NS(=O)(=O)c3ccc(Br)cc3)c(NCc3ccccc3)cc21", "activity change, negative = inhibition": "inactive: 5.95%"}, {"smiles": "NC(c1ccccc1)c1csc(NC(=O)Nc2cccc(C(F)(F)F)c2)n1", "note": "(stereo not drawn)", "Potency": "inconclusive: 14.1 µM [inhibitor, single point]"}, {"smiles": "CN(C)c1ccc(NC(=O)CCSc2nc(-c3ccco3)cc(C(F)(F)F)n2)cc1", "activity change, negative = inhibition": "inactive: -5.29%"}, {"smiles": "Cc1ccc(C)c(C(=O)CCC(=O)Nc2ccc(N3CCN(C)CC3)cc2C)c1", "Potency": "inconclusive: 28.2 µM [inhibitor, single point]"}, {"smiles": "CCCOc1ccc(C(=O)N/N=C/c2c[nH]c3ccc(Br)cc23)cc1", "Potency": "inconclusive: 11.2 µM [inhibitor, partial curve, poor fit]"}, {"smiles": "C/C(=N/NC(N)=S)c1ccc(Br)s1", "Potency": "inconclusive: 5.01 µM [inhibitor, full curve, poor fit]"}, {"smiles": "Oc1ccccc1N1CCN(c2ncnc3scc(-c4ccccc4)c23)CC1", "activity change, negative = inhibition": "inactive: -26.2%"}, {"smiles": "Cc1[nH]c(=S)[nH]c(=O)c1Cc1c(O)ccc2ccccc12", "activity change, negative = inhibition": "inactive: 12.2%"}, {"smiles": "CC(C)CN(Cc1c(O)ccc2c3c(c(=O)oc12)CCC3)CC(C)C", "activity change, negative = inhibition": "inactive: 8.64%"}, {"smiles": "N=c1sccn1CC(=O)Nc1ccc(S(=O)(=O)N2CCOCC2)cc1", "Potency": "inconclusive: 7.94 µM [inhibitor, partial curve, poor fit]"}, {"smiles": "COc1ccc(C(c2nnnn2CCc2ccccc2)N2CCN(C3CCCC3)CC2)cc1", "note": "(stereo not drawn)", "Potency": "inconclusive: 28.2 µM [inhibitor, single point]"}, {"smiles": "O=C(Nc1ccc(F)cc1F)c1ccc2nc(N3CCOCC3)sc2c1", "Potency": "inconclusive: 11.2 µM [inhibitor, single point]"}, {"smiles": "CN1CCC(=O)N([C@H](CN=[N+]=[N-])c2ccccc2)CC1", "Potency": "inconclusive: 12.6 µM [inhibitor, single point]"}, {"smiles": "CCCC(=O)OC1=CN(Cc2ccccc2)S(=O)(=O)c2ccccc21", "activity change, negative = inhibition": "inactive: 4.95%"}]}]}
